Reference: the RNAGym collection of RNA variant scans (doi:10.1073/pnas.2313332121)
Variants at the floor of the assay are shown more often than the library holds them.

B1: TPR 5TU (parent)
chain: GGAUCUUCUCGAUCUAACAAAAAAGACAAAUCUGCCACAAAGCUUGAGAGCAUCUUCGGAUGCAGAGGCGGCAGCCUUCGGUGGCGCGAUAGCGCCAACGUUCUCAACUAUGACACGCAAAACGCGUGCUCCGUUGAAUGGAGUUUAUCAUG

Variants of: B1
Assay: polymerase ribozyme fitness, log enrichment relative to wild type (log ratio); higher = more active; in vitro selection for triplet polymerase activity
How it was run: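 After PCR construction and transcription, each subunit's mutant library from a heterodimeric triplet polymerase ribozyme was annealed with a biotinylated primer, the partner subunit and triplets. Incubation was frozen, at −7 °C, and extended constructs were gel-excised, bound to streptavidin beads and amplified by RT-PCR, in one selection round done in triplicate. Fitness is the logarithm of a genotype's enrichment divided by that of the wild type, from inverse-variance-weighted replicate averages of Illumina-sequenced inputs and outputs. The base of the logarithm is 2, and genotypes needed ≥10 input reads and ≥1 read per output.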

Variant	polymerase ribozyme fitness (log ratio)
A26C C93G C125U	≤ -4.2
A26C C96U G124A	-1.67
A26C G34C A52C C75A G80C	≤ -4.2
A26C G42C U56G C96A C118U U139C A147U	≤ -4.2
A26C G46U C54G C76U C87G C93A G128C U135G	≤ -4.2
A26C G50U U56A A60C C149G	≤ -4.2
A26C G58A G59A U77C U90A C96U G152U	≤ -4.2
A26C G80C C114G	≤ -4.2
A26C G83A G86A A98G	≤ -4.2
A26C G83C A91G C108A C116G G143A	≤ -4.2
A26C G86A U102A G128U C131G	≤ -4.2
A26C G92A	≤ -4.2
A26C G92C	-2.71
A26C G92C U104C C108U A115C	≤ -4.2
A26C U31G U45G	≤ -4.2
A26C U44A A73U G152A	≤ -4.2
A26C U45G C63U C75U G80C G112C U144G	≤ -4.2
A26C U55A G71U G80U G88U G117A	≤ -4.2
A26C U144G	-0.859
A26G A28C U77C G81U C96U C125U G141U	≤ -4.2
A26G A29C C51A A66C C87G A106G A107G G141U	≤ -4.2

Variant	polymerase ribozyme fitness (log ratio)
A26G A30C U53A	≤ -4.2
A26G A39U C93A U134G	≤ -4.2
A26G A41C C63U U78A U101G A121G A122U	≤ -4.2
A26G A41G G42C U53A C54U A64G G94A U102G C116U	≤ -4.2
A26G A41G G59A A147C	≤ -4.2
A26G A47G C57U G83C C105G C132U	≤ -4.2
A26G A47U G80A C96U A137G G140C	≤ -4.2
A26G A60U C118U U134A U146G	≤ -4.2
A26G A60U G65A G88U A91U U134A	≤ -4.2
A26G A89C A97C G143C	≤ -4.2
A26G A91U U104G A122C	≤ -4.2
A26G A115G G141U	≤ -4.2
A26G C36U G65C A91G U111G C149A	≤ -4.2
A26G C38U A110G U148A	≤ -4.2
A26G C43G A64U U78G C118G A121U U135G A150G	≤ -4.2
A26G C51U U55A C85A C93G G94C A107C	≤ -4.2
A26G C54U G71U A89C G92A U139A	≤ -4.2
A26G C75G C93A C125U	≤ -4.2
A26G C76A G94C	≤ -4.2
A26G C85G A97U C118U C131G	≤ -4.2
A26G C95U C96U	-4.16

Variant	polymerase ribozyme fitness (log ratio)
A26G C103G U148A	≤ -4.2
A26G G34U C87A A89U	≤ -4.2
A26G G42C U78A C87G U111G U146G U151C	≤ -4.2
A26G G59A A60G U61A G80U G81A C93U C118G	≤ -4.2
A26G G67A U78C G80A C93A C114U A120U	≤ -4.2
A26G G81A C95U	≤ -4.2
A26G G83A G84U C96U A98C C118U	≤ -4.2
A26G G83A G141C	≤ -4.2
A26G G92U C108G G136C U144C	≤ -4.2
A26G G133A	≤ -4.2
A26G U33C C54U G88A C99G G117A	≤ -4.2
A26G U33C C85U	≤ -4.2
A26G U44A C54U C87A C99U U111G G143U	≤ -4.2
A26G U53A U101G U130A	≤ -4.2
A26G U55A	-2.03
A26U A28C A52C G58A U139G A147C	≤ -4.2
A26U A28U G92A C96U C116U	≤ -4.2
A26U A29C G124U	≤ -4.2
A26U A29C U101G G133U C149A	≤ -4.2
A26U A29G G42A G50A G74U C103G U104C	≤ -4.2
A26U A29U C57U G94C G117A	≤ -4.2

Variant	polymerase ribozyme fitness (log ratio)
A26U A30G C38U G71C	≤ -4.2
A26U A30G U61A G100U C108U G141A	≤ -4.2
A26U A37C U45A A120C G143C	≤ -4.2
A26U A39U G58A A66C C93U C149G	≤ -4.2
A26U A40C A142C	≤ -4.2
A26U A40C G68C G71U U82A A119C C125A A150C	≤ -4.2
A26U A40U A91U A121U	≤ -4.2
A26U A41C G71U C95A	≤ -4.2
A26U A41G C75G A91U G124C	≤ -4.2
A26U A41G G62U	-1.6
A26U A47C C54A G65C C93G C99U	≤ -4.2
A26U A47G G65A C69A U82A G88C U127A	≤ -4.2
A26U A49C G68A C129A	≤ -4.2
A26U A49G C93U G124C U135G A138G	≤ -4.2
A26U A49G C95U	-3.28
A26U A49U C87A U134G	≤ -4.2
A26U A49U U55G C57U A64U C76A G92U C96U A98C C123A A142G	≤ -4.2
A26U A52C U53A G88U C99G U148C	≤ -4.2
A26U A60G C69A A97U C114U U135C	≤ -4.2
A26U A60U G88C C95U A138C U151A	≤ -4.2
